In paper PMC4336329 (PLoS ONE, 2015):
The campaign covered roughly 310,000 compounds. About 2,200 (0.71%) showed an effect of 50% or more. The effect is printed as a negative number. The list shows a part of the results.

molecular target: human ether-à-go-go-related gene (hERG) potassium channel (human, UniProt Q12809); test: primary screen, population patch clamp on CHO cells stably expressing hERG
Sequence (Q12809 whole entry, looked up): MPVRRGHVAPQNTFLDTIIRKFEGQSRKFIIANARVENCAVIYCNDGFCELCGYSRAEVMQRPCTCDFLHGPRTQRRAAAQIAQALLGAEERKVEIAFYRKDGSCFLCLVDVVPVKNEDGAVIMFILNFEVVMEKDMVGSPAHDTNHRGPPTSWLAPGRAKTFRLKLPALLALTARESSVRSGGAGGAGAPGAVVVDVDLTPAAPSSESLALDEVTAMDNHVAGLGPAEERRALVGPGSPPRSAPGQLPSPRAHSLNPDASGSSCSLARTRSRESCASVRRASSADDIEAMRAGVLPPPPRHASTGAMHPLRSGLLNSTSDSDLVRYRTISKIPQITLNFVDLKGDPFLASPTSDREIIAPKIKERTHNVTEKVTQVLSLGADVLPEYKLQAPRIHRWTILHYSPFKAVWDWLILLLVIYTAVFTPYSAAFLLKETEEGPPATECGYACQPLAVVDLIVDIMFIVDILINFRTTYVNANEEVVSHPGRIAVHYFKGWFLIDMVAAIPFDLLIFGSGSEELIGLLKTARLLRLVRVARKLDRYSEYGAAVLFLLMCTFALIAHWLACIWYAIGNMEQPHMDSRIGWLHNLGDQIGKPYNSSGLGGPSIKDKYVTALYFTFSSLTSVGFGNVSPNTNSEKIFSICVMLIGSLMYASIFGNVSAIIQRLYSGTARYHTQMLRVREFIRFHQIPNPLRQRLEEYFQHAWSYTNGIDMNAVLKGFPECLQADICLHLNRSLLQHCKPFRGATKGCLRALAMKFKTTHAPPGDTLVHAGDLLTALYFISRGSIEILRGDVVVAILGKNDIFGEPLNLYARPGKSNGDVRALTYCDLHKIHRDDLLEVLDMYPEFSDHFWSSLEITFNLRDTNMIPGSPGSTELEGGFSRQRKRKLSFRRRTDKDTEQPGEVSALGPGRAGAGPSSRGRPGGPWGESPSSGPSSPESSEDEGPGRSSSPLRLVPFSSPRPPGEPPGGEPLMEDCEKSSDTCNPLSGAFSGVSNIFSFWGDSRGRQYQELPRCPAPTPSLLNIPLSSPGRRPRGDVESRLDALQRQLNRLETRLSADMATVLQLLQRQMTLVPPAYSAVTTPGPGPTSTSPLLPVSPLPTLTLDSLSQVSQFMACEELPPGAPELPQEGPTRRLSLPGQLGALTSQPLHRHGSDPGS

| SMILES | hERG current change (%, negative = inhibition) at 1uM |
| --- | --- |
| Cc1ccc(C)c(OCc2ccc(C(=O)NN)o2)c1 | 2.86% |
| O=C(CCNS(=O)(=O)c1ccccc1)N1CCC(Cc2ccccc2)CC1 | 12% |
| Cc1cccc(C)c1N1CCN(S(=O)(=O)N2CCCCC2)CC1 | 15.9% |
| CCCc1nnc(NC(=O)CN2C(=O)c3ccccc3S2(=O)=O)s1 | 9.4% |
| COc1cc(/C=N/NC(=O)CN2CCCCC2)ccc1OCc1ccc(Br)cc1 | -1.9% |
| CC(C)(C)NC(=O)C(c1ccc(O)cc1)N(Cc1ccccc1)C(=O)CCC(=O)Nc1nccs1 (stereo not drawn) | 10.6% |
| CCOc1ccc(NC(=O)C2=C(C)NC(=S)NC2c2ccc(O)c(OC)c2)cc1 (stereo not drawn) | 12.7% |
| O=C(NCc1cccc(Cl)c1)C1CCN(S(=O)(=O)c2ccc(F)cc2)CC1 | 3.5% |
| CCC(C)(C)NC(=O)C1CCN(c2nc(C)cc(C)n2)CC1 | 15.1% |
| Cl.NC(N)=NC(N)=Nc1cccc(Cl)c1 | 3.28% |
| Cl.OC(CNCc1cccc(Br)c1)c1ccccc1 (stereo not drawn) | -16.7% |
| Cc1ccc(C(=O)NN(C)c2nc3ccccc3nc2C(F)(F)F)cc1 | 8.23% |
| COc1ccc(/C=C/C(=O)NCC(c2ccc(F)cc2)N2CCOCC2)cc1OC (stereo not drawn) | 9.02% |
| COC(=O)CNC(c1ccccc1)c1cc(Br)ccc1NC(=O)CCN1CCOCC1 (stereo not drawn) | -2.25% |
| O=C1Cc2ccccc2C(=O)N1c1ccccc1 | 5.39% |
| Nn1c(=O)c2ccccc2n2c(SCc3ccccc3)nnc12 | -15.8% |
| CCC1=C2CC[C@H]3C(=O)NC(=O)[C@H]3[C@H]2[C@@]2(Cc3ccccc3)C(=NCC(=O)OC)OC(=O)N2C1=O | 11.5% |
| CCN(CC)C(=O)CSc1nc2cc3c(cc2c(=O)n1Cc1ccc(OC)cc1)OCO3 | 7.98% |
| COc1ccccc1CCNC(=O)c1cnn2c(C(F)F)cc(C)nc12 | 1.73% |

| SMILES | hERG current change (%, negative = inhibition) at 1uM |
| --- | --- |
| COc1cccc(/C=N/NC(=O)CN2CC(c3ccccc3)CC2=O)c1OC (stereo not drawn) | 5.33% |
| O=C(O)CCC(=O)/C=C/c1ccccc1 | -2.05% |
| Cc1ccc(NC(=O)C2CCN(C(=O)[C@@H]3Cc4ccccc4CN3)CC2)c(C)c1 | -3.96% |
| NC(=O)CN1C(=O)C(O)(CC(=O)c2ccccc2O)c2ccccc21 (stereo not drawn) | 6.9% |
| Cl.OCCN(CCO)c1nc(-c2ccccc2)nc2c1oc1ccccc12 | 12.6% |
| CCOC(=O)c1cc(-c2ccco2)nc2c1c(C)nn2-c1cccc(Cl)c1 | 10.9% |
| O=C(Oc1cccnc1)c1ccc([N+](=O)[O-])cc1Cl | 0.363% |
| CCc1ccc(NC2=NCCCS2)cc1 | 5.76% |
| COC(=O)C1CC(O)CN1S(=O)(=O)c1cccs1 (stereo not drawn) | 8.52% |
| Cc1c(NC(=O)Nc2ccc(C#N)cc2)c(=O)n(-c2ccccc2)n1C | 4.52% |
| COC(=O)C1C(=O)NCC1c1ccc(OC)cc1 (stereo not drawn) | 5.98% |
| O=C(Cn1c(=O)n2ncnc2c2c3c(sc21)CCCC3)c1ccccc1 | -6.45% |
| O=C(Cc1cccs1)Nn1c(Cc2cccs2)nc2ccccc2c1=O | 18.7% |
| CN1C(C)(C)CC(=NOC(=O)c2ccccc2)CC1(C)C | -6.15% |
| CC(C)(C)[C@@H]1C=C(C(=O)O)O[C@H](OCc2ccc(CO)cc2)C1 | 10.5% |
| Cc1c(NC(=S)N/N=C/c2ccc(O)cc2)c(=O)n(-c2ccccc2)n1C | 10.3% |
| O=C(NC1CC2CCC(C1)N2Cc1ccco1)c1ccccc1 (stereo not drawn) | -4.4% |
| Nc1c2c(nc3sc4c(c13)CCCC4)CCCCCC2 | -2.18% |
| O=C1/C(=C/c2ccncc2)Oc2cc(OS(=O)(=O)c3ccccc3)ccc21 | 10% |

| SMILES | hERG current change (%, negative = inhibition) at 1uM |
| --- | --- |
| CC(C)Cc1ccc(S(=O)(=O)N2CCN(c3ccccn3)CC2)cc1 | 14.5% |
| O=C(CC1C(=O)N(c2ccccc2)C(=S)N1c1ccccc1)c1ccc(Br)cc1 (stereo not drawn) | 23.3% |
| NC(=O)CSc1nnc2sc3ccccc3n12 | 2.33% |
| O=C(NCC(=O)N(Cc1ccco1)C(C(=O)NC1CCCC1)c1cccnc1)c1ccco1 (stereo not drawn) | 8.21% |
| CCNc1nc(Nc2ccc(C)c(Cl)c2)c2cnn(C)c2n1 | 11.6% |
| COC(=O)C1=C(C)NC2=C(C(=O)CCC2)C1c1cn(Cc2ccc(Cl)cc2Cl)nc1-c1ccccc1 (stereo not drawn) | 6.08% |
| COc1ccc(C2C3=C(N=C4SCC(=O)N42)c2ccccc2CC3)cc1OC (stereo not drawn) | 1.06% |
| CSc1ccccc1OCc1cc(C(=O)NCCN2CCCc3ccccc32)no1 | 13.1% |
| CCOc1ccc2nc(-c3ccc(OC)c(OC)c3)cc(C(=O)O)c2c1 | 15.4% |
| Cc1ccc(COC(=O)c2nn(-c3ccccc3)nc2N)cc1 | 4.86% |
| O=C(CNCc1ccncc1)Nc1cc(S(=O)(=O)N2CCCCC2)ccc1Cl | -9.39% |
| Brc1cccc(-c2nnc(SCc3nc4ccccc4[nH]3)o2)c1 | 3.25% |
| Nc1nc(SCC(=O)O)[nH]c(=O)c1NC(=O)c1ccco1 | 8.65% |
| COc1cc(CNC2CCCC2)c(Br)cc1OCc1ccccc1.Cl | -8.41% |
| O=S(=O)(Nc1ccc(N2CCCCC2)cc1)c1ccc(F)cc1 | 13.2% |
| CC12CCC(=O)N1C(C(=O)NCCc1ccc(S(N)(=O)=O)cc1)CS2 (stereo not drawn) | 18.7% |
| COC(=O)Cn1cnc2sc(C)c(S(=O)(=O)N3CCC(C)CC3)c2c1=O | 12.2% |
| CCCCCCC1CC(=O)NC(=S)N1 (stereo not drawn) | 8.17% |
| CCCCC1OC23CCCCC2C(C#N)(C(=N)O3)C1(C#N)C#N (stereo not drawn) | 4.59% |
